± gives the standard deviation. Only a part is listed here, and it is no random draw.
System: MIWI (PIWIL1) piRISC loaded with L1MC piRNA (30 nt)
Assay: pre-steady-state target cleavage rate (min^-1); MIWI and MILI are mouse PIWI proteins and EfPiwi is from a freshwater sponge; tags in brackets are library labels; higher = faster piRNA-guided slicing of the target
Conditions: guide: L1MC piRNA 5'p-UAACUAAAUACUAUGCAAGCUGUAGGUCCU
Outline: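 Cleave-'n-Seq reactions paired 0.1 nM transcribed, DNA-blocked target RNA library with 1 nM active affinity-purified piRISC holding one synthetic guide, plus or minus 500 nM GTSF1 partner protein, in HEPES–potassium acetate buffer at 33 °C for 0–8 or 0–960 min. After sequencing of uncleaved targets and normalisation to depth and weakly complementary targets, the pre-steady-state cleavage rate was taken from a burst-and-steady-state fit. Three trials were pooled, and k3 was capped at 0.0001 min^-1.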

[1] = auxiliary factor: 500 nM mouse GTSF1
[2] = auxiliary factor: none (no GTSF1)

Sequence	pre-steady-state target cleavage rate [1]	pre-steady-state target cleavage rate [2]
UCCUGGUACAGCUUGCAUAGAAUUUACAAA	0.0317 ± 0.014	
UCCUCCUACAGCUUGCAAUCUAUUUAGUAA	0.103 ± 0.015	
UGGACCUACAGCUUGCAUAGUAAAAACAAA	0.0611 ± 0.021	
UGGACCAUCAGCUUGCAUAGUAUUUAGUUA		0.101 ± 0.019
UCCUGCUACAGCUUGCAUAGUUAUUACAAA	0.0101 ± 0.0052	
UCCUGGUACAGCUUGCAUUGUAUUUUCAAA	0.0222 ± 0.01	
UCGACCUACAGCUUGCUAUGUAUUUAGAAA	0.0126 ± 0.0051	
UCCUGGAUGAGCUUGACAUAGUAUUUAGUUA	0.201 ± 0.019	
UCGACCUACAGCUUCCAUAGUAUUUAGAAA	0.073 ± 0.024	
UCCUGGAACAGCUACCAUAGUAUUUAGUAA	0.0979 ± 0.017	
UCCUGGAUGUGCUUGCAUAGUAUUUUCUAA	0.00784 ± 0.0038	
UCCUGGUACAGCUUGCUAUAGUAUUUAGUUA	0.027 ± 0.009	
UCCUCCUACAGGAUGCAUAGUAUUUAGAAA	0.248 ± 0.036	
UCCUGGAUGUCGAACGAUAGUCAUUUAGUUA	< 0.0001	
AGGACCUACAGCUUGCAUAGUUAAUUCAAA	0.786 ± 0.23	
UCCUGGUACAGCUAGCAUAGUAUUUAGAAA	0.293 ± 0.051	
UCCUGCUACAGCUUCCAUAGUUUUUAGUUA	0.0485 ± 0.02	
UCCUGGAUGUGCAAGCAUAGUAUUUAGUUA	0.0116 ± 0.0043	
UCCUCCUACAGCUUGGAUAGUAUUUUCAAA	0.0219 ± 0.0094	
UCCUCCUACAGCUUGCAUAGAUAUUAGUUA	0.0322 ± 0.013	
UGGACCUACAGGAUGCAUAGUAUUUUCAAA	0.136 ± 0.028	
UCCACCUACAGCUUCGAUAGUAUUUUCAAA	0.00864 ± 0.0049	

Sequence	pre-steady-state target cleavage rate [1]	pre-steady-state target cleavage rate [2]
UCCUGGUACAGCUUGCAUUCUAUUUAGUUA	0.116 ± 0.041	
UCCUGGUACAGCUUGGUAAGUAUUUAGUUA	0.0196 ± 0.005	
UCCUGGUACACGAUGCAUAGUAUUUAGUAA	0.0477 ± 0.015	
UCCUGGAUGAGGUUGCAUAGUAAUUAGUUA	0.0134 ± 0.0044	
UCCUCCUACAGCUUGCAUAUGUAUUUAGUUA	0.0119 ± 0.0066	
AGGACCUACAGCUUCGUUAGUAUUUAGUAA	0.06 ± 0.012	
UCCUGGAACAGCUUGCAUAGUAAAAAGUUA	0.0976 ± 0.019	
UCCUGGAUGAGCUUGCAUAGUAUUAACAAA	0.0173 ± 0.0075	
UGGACCUACAGCUUGCAUAGUAAAUUCAAA	0.147 ± 0.049	
UCCUGGAACAGCUUGCAUAGUAUUAUGAAA	0.257 ± 0.051	
UCCACCAUGAGCUUGCAUAGUAUUUUCAAA	0.183 ± 0.033	
UCCUGCUACAGCUUGCAUUGUAUUUUCAAA	0.136 ± 0.024	
UCCUGGUACAGCUUGGAUAGUAUUUAGAAA	0.0279 ± 0.011	
AGGACCAACAGCAUGCAUAGUAUUUAGUUA		0.0703 ± 0.016
UCCUGGAUCAGCUUGCCAUAGUAUUUAGUUA	0.0581 ± 0.0097	
UCCUGGAUGUCGAACCAUCAGUAUUUAGUUA		< 0.0001
UCCUGGUACAGCAAGCAUAGUAUUUACAAA	0.0933 ± 0.025	
UCCUGGAUCUGCUUCCAUAGUAUUUAGUUA	0.0123 ± 0.0024	
UCCUGGAUGUCGAACGUAUCUGAUUUAGUUA	< 0.0001	
AGGACCUACAGCUUGCAAUAGUAUUUAGUUA	0.148 ± 0.027	
UCCUCCUAGAGCUUCCAUAGUAUUUAGUUA	0.139 ± 0.04	
UCGACCUUCAGCUUGCAUAGUAUUUUCAAA	0.384 ± 0.046	

Sequence	pre-steady-state target cleavage rate [1]	pre-steady-state target cleavage rate [2]
UCCUGCUACAGCUUGCAGUAGUAUUUAGUUA	0.00673 ± 0.0053	
UCGACCUACAGCUUGGUAAGUAUUUAGUUA	0.0619 ± 0.011	
UCCUCCUACAGCUUGCAUAGUAUUUUCUAA	0.316 ± 0.036	
UCCUGGAUGUCGUUGCAUAGCAUUUAGUUA	0.0053 ± 0.0037	
UCCACCUAGUGCUUGCAUAGUAUUUAGAAA	0.101 ± 0.019	
UCCUGGAUGUCGUUGCAUAGUCUUUAGUUA	0.00588 ± 0.0031	
UCGACCUACAGCUUGCAUAGUAAAAUCAAA	0.159 ± 0.039	
AGGACCUACAGCUUGCAUAGUAUAAUCAAA	0.414 ± 0.073	
UGGACCUACAGCUUGCAUAGUUAAUAGAAA	0.0323 ± 0.01	
UCCUGGAACAGCUUGCAUAGUAUAAUGUAA	0.0909 ± 0.025	
UCGACCUACAGCUUCGUUAGUAUUUAGUAA	0.0294 ± 0.006	
UCCUGCUACAGCUUGCAUAGUUAAUAGAAA	0.078 ± 0.022	
AGGACCUACUGCUUGGAUAGUAUUUAGUUA		0.061 ± 0.0085
AGGUCCUUCAGCUUGCAUAGUAUUUAGUUA		0.0947 ± 0.018
AGCUGCUACAGCUUGCAUAGUAUUUAGUUA		0.0697 ± 0.012
UCCUGGAUGUCGAACGAUAGUAAUAAGUUA		< 0.0001
UCCACCUUCAGCUUGCAUAGUAUUUAGUUA	0.933 ± 0.045	0.0531 ± 0.0087
UCGACCUACAGCUUGCAUAGUAAAAACAAA	0.194 ± 0.043	
UCCUGGUACACCUAGCAUAGUAUUUAGUUA	0.278 ± 0.063	0.00414 ± 0.0028
UCCUGGAUGUCCAUGCAUAGUAUUAAGUUA	0.00813 ± 0.0047	
UCCUGGAUGUCCUUGCAUAAUAUUUAGUUA	0.0261 ± 0.0065	0.00475 ± 0.0022

Source: the supplement of paper PMC10338343
